# Reference: article PMC4336329 (PLoS ONE, 2015)
# Hit rate of the full screen: of about 310,000 compounds, about 2,200 (0.71%) showed an effect of 50% or more. Effects have a minus sign here. The list shows a part of the results.
# Biological target: human ether-à-go-go-related gene (hERG) potassium channel (human, UniProt Q12809)
# Experiment: primary screen, population patch clamp on CHO cells stably expressing hERG
# Chain of human ether-à-go-go-related gene (hERG) potassium channel (Q12809 whole entry, looked up): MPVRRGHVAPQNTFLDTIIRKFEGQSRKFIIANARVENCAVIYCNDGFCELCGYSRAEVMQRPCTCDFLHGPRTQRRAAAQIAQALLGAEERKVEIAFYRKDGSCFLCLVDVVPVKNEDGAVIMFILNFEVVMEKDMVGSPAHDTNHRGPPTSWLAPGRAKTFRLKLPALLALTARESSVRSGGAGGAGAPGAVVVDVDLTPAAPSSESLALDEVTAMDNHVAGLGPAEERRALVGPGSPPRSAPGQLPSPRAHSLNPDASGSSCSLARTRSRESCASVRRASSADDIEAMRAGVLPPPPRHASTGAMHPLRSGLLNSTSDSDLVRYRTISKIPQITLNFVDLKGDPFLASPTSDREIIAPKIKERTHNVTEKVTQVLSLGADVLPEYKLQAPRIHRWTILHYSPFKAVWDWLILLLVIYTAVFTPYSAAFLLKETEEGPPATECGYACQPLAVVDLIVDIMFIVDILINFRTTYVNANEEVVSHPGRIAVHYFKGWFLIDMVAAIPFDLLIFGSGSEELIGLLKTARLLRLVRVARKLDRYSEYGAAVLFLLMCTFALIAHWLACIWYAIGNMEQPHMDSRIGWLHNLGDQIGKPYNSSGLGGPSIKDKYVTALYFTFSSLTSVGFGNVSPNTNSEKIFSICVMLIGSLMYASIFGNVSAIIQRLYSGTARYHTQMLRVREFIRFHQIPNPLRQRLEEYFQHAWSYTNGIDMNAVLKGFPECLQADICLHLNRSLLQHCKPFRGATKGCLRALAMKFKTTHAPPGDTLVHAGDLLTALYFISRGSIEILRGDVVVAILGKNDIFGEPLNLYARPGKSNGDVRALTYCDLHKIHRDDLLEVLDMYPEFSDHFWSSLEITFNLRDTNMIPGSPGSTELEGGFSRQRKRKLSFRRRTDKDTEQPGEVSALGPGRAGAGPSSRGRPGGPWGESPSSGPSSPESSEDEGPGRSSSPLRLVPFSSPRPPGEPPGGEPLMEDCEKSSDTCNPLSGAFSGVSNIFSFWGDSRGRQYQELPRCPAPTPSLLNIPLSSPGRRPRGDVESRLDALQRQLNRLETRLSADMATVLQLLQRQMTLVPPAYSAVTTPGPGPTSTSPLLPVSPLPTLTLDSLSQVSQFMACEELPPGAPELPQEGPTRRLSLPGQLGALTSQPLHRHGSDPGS
row,SMILES,"hERG current change (%, negative = inhibition) at 1uM [%]"
1,COc1cc(C=C2C(=O)c3ccccc3C2=O)ccc1O,8.84
2,Cc1ccc(N(C(=O)C(F)(F)F)C(C(=O)NC2CCCCC2)c2cccs2)cc1C (stereo not drawn),12.3
3,O=c1c(-n2cncn2)c[nH]n1-c1cccc(Cl)n1,12.2
4,COc1ccc(CN(CC(=O)NC2CCCC2)C(=O)c2ccc(-c3ccccc3)[nH]2)cc1,0.812
5,COC(=O)c1cc(O)c(O)c(O)c1,6.96
6,O=[N+]([O-])c1ccc2c(c1)nc1n2CCN(CC2CCCO2)C1 (stereo not drawn),4.12
7,CCC(=NCc1ccc(F)cc1)c1c(O)n(C)c(=O)n(C)c1=O,-3.9
8,CCOC(=O)C1=C(c2ccccc2)NC(=O)NC1c1cc(Br)c(O)c(OC)c1 (stereo not drawn),8.6
9,CC(=O)NC(CCS(C)(=O)=O)C(=O)Nc1ccc2c(c1)OCCO2 (stereo not drawn),-2.18
10,CC(C)C(C(=O)Nc1nccs1)c1ccccc1 (stereo not drawn),7.7
11,O=C(Cc1ccc(S(=O)(=O)N2CCOCC2)s1)N1CCN(S(=O)(=O)c2ccc(Cl)cc2)CC1,-5.52
12,O=C(Nc1cccc(Cl)c1)c1cc(S(=O)(=O)NCCc2ccc(Cl)cc2)ccc1F,11.9
13,CCn1c(SCC(=O)Nc2ccccc2)nc2nc3c(cc2c1=O)COC(C)(C)C3,-12.4
14,CC(C)c1ccc(C(=O)Nc2nnc(S(=O)(=O)N3CCOCC3)s2)cc1,-2.75
15,O=C(Nc1ccc(S(=O)(=O)NC2=NCCCCC2)cc1)c1ccco1,6.55
16,O=S(=O)(Cc1ccccc1)Nc1ccc(S(=O)(=O)NCC2CCCO2)cc1 (stereo not drawn),-0.919
17,C[C@H]1CN=C(N(C)C)N1CCCC1CCCC1,-6.72
18,O=C(Nc1ccc(-c2csc(Nc3ccccc3)n2)cc1)c1ccccc1,14.3
19,CC1CCN(C(=O)CSC2=NS(=O)(=O)c3cc(F)ccc3N2)CC1,6.34

row,SMILES,"hERG current change (%, negative = inhibition) at 1uM [%]"
1,COc1cc(Cl)c(S(=O)(=O)NCCCn2ccnc2)cc1Cl,12.3
2,Cc1cc(N2CCOCC2)n2nc(-c3cccc(F)c3)cc2n1,4.77
3,CC(C)N(C(=O)C(F)(F)F)C(C(=O)NC1CCCCC1)c1ccncc1 (stereo not drawn),4.94
4,COc1ccc(S(=O)(=O)Nc2ccc(S(=O)(=O)N3CCCCC3)cc2)cc1OC,5.82
5,S=C(NCc1ccc2c(c1)OCO2)NCc1ccco1,10.8
6,CCOC(=O)C1CCCN(C(=O)c2cc3ccccc3oc2=O)C1 (stereo not drawn),12.8
7,CC(C)Oc1ccc(C2C(C(=O)c3ccco3)=C(O)C(=O)N2Cc2cccnc2)cc1 (stereo not drawn),16.9
8,CC(=O)Nc1ccccc1-c1nnc(SCc2ccccc2Cl)[nH]c1=O,11.7
9,Cc1ccc(C(=O)NCC(c2ccco2)N2CCCCC2)s1 (stereo not drawn),-10.9
10,NC(=O)CC(NC(=O)Cc1ccc(Cl)cc1)c1ccc(NCCN2CCOCC2)c([N+](=O)[O-])c1 (stereo not drawn),15.4
11,Cc1cccc(NS(=O)(=O)c2cccs2)c1,10.7
12,O=C(NCc1ccc2c(c1)OCO2)C(=O)NCC1CCCO1 (stereo not drawn),9.79
13,COc1ccc(/C(O)=C2\C(=O)C(=O)N(CCN(C)C)C2c2cc(OC)c(OC)c(OC)c2)c(C)c1 (stereo not drawn),3.85
14,Cl.O=C(NCCCN1CCOCC1)c1ccc(Cl)c(S(=O)(=O)N2CCCCCC2)c1,-18.9
15,CS(=O)(=O)NCc1ccc(C(=O)NCc2ccccc2)cc1,10.6
16,C=COCCNC(=S)Nc1ccccc1,12
17,Cc1cccc(C(=O)NC(NC(=S)Nc2ccc(S(N)(=O)=O)cc2)C(Cl)(Cl)Cl)c1 (stereo not drawn),20.3
18,O=C(NCCCC1CCCC1)C1CCC(=O)N(Cc2cccc(C(F)(F)F)c2)C1 (stereo not drawn),5.47
19,CN(C)C(=O)Cn1c(SCC(=O)N2CCCc3ccccc32)nc2ccccc21,5.13

row,SMILES,"hERG current change (%, negative = inhibition) at 1uM [%]"
1,CC(C)N1CCN(Cc2ccccc2C(F)(F)F)CC1CCO (stereo not drawn),2.24
2,C=CCNC(=S)NNC(=O)COc1ccc(Br)cc1,7.76
3,Cc1cc2c(cc1C)NC(c1c(C)n(C)n(-c3ccccc3)c1=O)C1=C(CC(C)(C)CC1=O)N2 (stereo not drawn),-1.71
4,COC(=O)Cc1ccc(NC(C)=O)cc1,6.94
5,COC(=O)C(NC(=O)c1ccco1)(Nc1nc(C)cs1)C(F)(F)F (stereo not drawn),3.78
6,Cc1ccc(CN(C(=O)N2CCN(C)CC2)S(=O)(=O)c2ccc(C)cc2)cc1,0.555
7,CCCCn1c(N)c(N(CCOC)C(=O)CN2c3ccccc3CC2C)c(=O)[nH]c1=O (stereo not drawn),13.7
8,CCC(C)[C@H]1CN=C(N)N1CCCc1cc(OC)c(OC)c(OC)c1 (stereo partly drawn),10.4
9,COc1ccc(-c2cc(C)no2)cc1S(=O)(=O)N1CCN(c2ccccn2)CC1,-12.9
10,Cc1csc(C(=O)O)c1NC(=O)c1ccc(F)cc1,13.5
11,O=S(=O)(Nc1ccc2c(c1)OCO2)c1ccc(F)c(F)c1,2.55
12,CN(C)CCCNS(=O)(=O)c1ccc(Oc2ncc(C(F)(F)F)cc2Cl)cc1,-11.6
13,Cc1ccc(S(=O)(=O)NCCSCc2ccco2)cc1,6.43
14,Cc1ccc(S(=O)(=O)N2CCCN(S(=O)(=O)c3ccc(C)cc3)CC2)cc1,-5.54
15,O=C1NC2=C(C(=O)CCC2)C(c2ccccc2)N1 (stereo not drawn),13.2
16,O=C(Nc1ncccc1O)c1ccc2c(c1)OCCO2,15.3
17,COc1ccc(CNC(=O)C(CCSC)NS(=O)(=O)c2ccccc2F)cc1 (stereo not drawn),10
18,Cc1cc(NC(=O)c2ccc(N3CCCC3)c([N+](=O)[O-])c2)no1,17.5
19,O=[N+]([O-])c1cccc(S(=O)(=O)c2cccc([N+](=O)[O-])c2)c1,9.61
